This note sets out measurements from a collection of fitness landscapes (doi:10.1126/science.1257360).

This is one part of the list.

To fix the notation:
B1: PhoQ; a variant is named by its letters at X, in order, P23837 (parent)
chain: MKKLLRLFFPLSLRVRFLLATAAVVLVLSLAYGMVALIGYSVSFDKTTFRLLRGESNLFYTLAKWENNKLHVELPENIDKQSPTMTLIYDENGQLLWAQRDVPWLMKMIQPDWLKSNGFHEIEADVNDTSLLLSGDHSIQQQLQEVREDDDDAEMTHSVAVNVYPATSRMPKLTIVVVDTIPVELKSSYMVWSWFIYVLSANLLLVIPLLWVAAWWSLRPIEALAKEVRELEEHNRELLNPATTRELTSLVRNLNRLLKSERERYDKYRTTLTDLTHSLKTPLXXLQXXLRSLRSEKMSVSDAEPVMLEQISRISQQIGYYLHRASMRGGTLLSRELHPVAPLLDNLTSALNKVYQRKGVNISLDISPEISFVGEQNDFVEVMGNVLDNACKYCLEFVEISARQTDEHLYIVVEDDGPGIPLSKREVIFDRGQRVDTLRPGQGVGLAVAREITEQYEGKIVAGESMLGGARMEVIFGRQHSAPKDE

The variants in the assay derive from B1. The experiment in a line: enrichment ratio after two sorts for PhoP signalling (ratio (wild type AVST 3.29)); higher = more functional. Conditions: with PhoP (E. coli).
Turning to YHCY, the enrichment ratio is not above 0.25. Consider SCIQ, for which the enrichment ratio is 2.92. On to SNSY, for which the enrichment ratio was found to be 12.8. On to DNKF, for which the enrichment ratio is not above 0.25. On to GFEH, for which the enrichment ratio was not above 0.25.

Turning to DIHD, the enrichment ratio is not above 0.25. With FIKS, the enrichment ratio was not above 0.25. On to FHYC, for which the enrichment ratio is not above 0.25. On to FDWS, for which the enrichment ratio was not above 0.25. GDVV: the enrichment ratio stood at 6.77. As to WDMV, the enrichment ratio is not above 0.25.

For WTIM, the enrichment ratio was not above 0.25. Regarding TNFW, the enrichment ratio was not above 0.25. The same measure for ALSR: 0.524; for YICA: not above 0.25; for VQQT: not above 0.25. The same measure for WCRY: not above 0.25; for DMTK: not above 0.25; for ASKT: not above 0.25.

With FDQD, the enrichment ratio is not above 0.25. In the case of FEDA, the enrichment ratio was not above 0.25. For the variant TYML, the enrichment ratio was determined as 0.784. Regarding WPMY, the enrichment ratio is not above 0.25. TNEH: the enrichment ratio is not above 0.25. Take HFCA: the enrichment ratio was not above 0.25. In the case of HHAS, the enrichment ratio was not above 0.25. Consider RKGE, for which the enrichment ratio was not above 0.25.

For the variant ASMM, the enrichment ratio was found to be 41.3. As for VHLP, the enrichment ratio was not above 0.25. As to AWYI, the enrichment ratio is not above 0.25. As for AENK, the enrichment ratio is not above 0.25.

Turning to GSQT, the enrichment ratio is not above 0.25.

IVVP: the enrichment ratio was not above 0.25.

As to VPYK, the enrichment ratio was not above 0.25. As for LWGV, the enrichment ratio is not above 0.25.

In the case of SQLP, the enrichment ratio is not above 0.25. Consider RFTP, for which the enrichment ratio is not above 0.25. The same measure for FYVM: not above 0.25.

Turning to YFDN, the enrichment ratio is not above 0.25. SFNW: the enrichment ratio was not above 0.25.

Regarding SHPR, the enrichment ratio was not above 0.25. On to FVQA, for which the enrichment ratio was not above 0.25. The same measure for IPIY: not above 0.25. The same measure for LINA: not above 0.25; for ITEL: not above 0.25.

Regarding SLAC, the enrichment ratio came out at 2.46. As for LPMY, the enrichment ratio was determined as 1.78.

For KIWM, the enrichment ratio was not above 0.25. As to VNHF, the enrichment ratio was not above 0.25. With VIFW, the enrichment ratio was not above 0.25. With VTDI, the enrichment ratio was not above 0.25. The same measure for QTIT: not above 0.25; for GSVQ: 6.76; for SREK: not above 0.25. The same measure for LGNC: not above 0.25; for VMYD: not above 0.25; for GQFD: not above 0.25. For the variant FEYR, the enrichment ratio was not above 0.25.

For the variant YHSG, the enrichment ratio is not above 0.25.

In the case of WYQP, the enrichment ratio was not above 0.25.

IDAE: the enrichment ratio is not above 0.25. For the variant YSLH, the enrichment ratio came to 5.18. As for ETKS, the enrichment ratio is not above 0.25. In the case of KQSV, the enrichment ratio is not above 0.25. For FARC, the enrichment ratio was not above 0.25.

As for IYNE, the enrichment ratio is not above 0.25. As to YSIW, the enrichment ratio is not above 0.25. Regarding PRVR, the enrichment ratio is not above 0.25. On to KPND, for which the enrichment ratio is not above 0.25. Regarding SSFW, the enrichment ratio was not above 0.25. Regarding SFTD, the enrichment ratio was not above 0.25.

On to RALL, for which the enrichment ratio is not above 0.25. With IVPA, the enrichment ratio was not above 0.25.

As to KTMM, the enrichment ratio was not above 0.25. ITYH: the enrichment ratio is not above 0.25. The same measure for SAFR: not above 0.25; for NNWW: not above 0.25; for ITRC: not above 0.25. YTKE: the enrichment ratio was not above 0.25. The same measure for LCST: not above 0.25; for RTLQ: not above 0.25; for KFLP: not above 0.25. Take TQLC: the enrichment ratio was 13.1. The same measure for YKHW: not above 0.25; for YRIH: not above 0.25. The same measure for QRNL: not above 0.25. As to GFHE, the enrichment ratio was not above 0.25. The same measure for VGPR: not above 0.25; for SFTC: 0.693; for IYNY: not above 0.25. Take PMHY: the enrichment ratio is not above 0.25.

In the case of MDNK, the enrichment ratio was not above 0.25. In the case of ESQM, the enrichment ratio was not above 0.25. Regarding TAFG, the enrichment ratio is not above 0.25.

As to AKQM, the enrichment ratio was not above 0.25. Take FESD: the enrichment ratio is not above 0.25. As for WSTP, the enrichment ratio is not above 0.25. For the variant TVCV, the enrichment ratio worked out at 2.24. For GKNV, the enrichment ratio was not above 0.25. Regarding HADP, the enrichment ratio is not above 0.25. On to DGPP, for which the enrichment ratio is not above 0.25. For the variant WACK, the enrichment ratio was not above 0.25. For the variant HIWV, the enrichment ratio is not above 0.25.

In the case of LVMQ, the enrichment ratio was not above 0.25. For SPLC, the enrichment ratio was not above 0.25. On to EMVA, for which the enrichment ratio was not above 0.25. For SIKR, the enrichment ratio was not above 0.25. Take NQCT: the enrichment ratio was not above 0.25.

For FAYW, the enrichment ratio was not above 0.25. In the case of RWDS, the enrichment ratio was not above 0.25. Regarding FVIY, the enrichment ratio is not above 0.25.

For the variant HWGT, the enrichment ratio is not above 0.25. Regarding YYTY, the enrichment ratio is not above 0.25.

As to QISF, the enrichment ratio was 1.79. The same measure for VMEM: not above 0.25; for THQK: not above 0.25; for MECR: not above 0.25. Regarding YQPQ, the enrichment ratio was not above 0.25. Take IGDW: the enrichment ratio was not above 0.25. Take VYKF: the enrichment ratio was not above 0.25. In the case of GAPK, the enrichment ratio was not above 0.25.

For GMQH, the enrichment ratio is not above 0.25. With TEVI, the enrichment ratio was 12.8. Turning to GPHV, the enrichment ratio is not above 0.25. With GWAR, the enrichment ratio is not above 0.25. The same measure for ILQR: not above 0.25; for RTCL: not above 0.25; for FDPL: not above 0.25.

As for MKIK, the enrichment ratio is not above 0.25. On to RVVQ, for which the enrichment ratio was not above 0.25. The same measure for MVNK: not above 0.25. DPCQ: the enrichment ratio is not above 0.25. VLCI: the enrichment ratio is not above 0.25. On to SERQ, for which the enrichment ratio was not above 0.25. With HYMH, the enrichment ratio is not above 0.25.

Take MCVS: the enrichment ratio was not above 0.25.

PAYC: the enrichment ratio is not above 0.25.

Turning to IHLH, the enrichment ratio is not above 0.25. With TTSW, the enrichment ratio came out at 1.4. As to TKDA, the enrichment ratio was not above 0.25. Regarding ANGR, the enrichment ratio is not above 0.25. On to YCSG, for which the enrichment ratio worked out at 0.266. With PMCP, the enrichment ratio was not above 0.25. For the variant QDFH, the enrichment ratio is not above 0.25. Consider KGPV, for which the enrichment ratio is not above 0.25. Consider ITIT, for which the enrichment ratio is not above 0.25. The same measure for VKPI: not above 0.25; for FSGS: not above 0.25.

Consider RQMW, for which the enrichment ratio is not above 0.25.

Turning to QCQH, the enrichment ratio is not above 0.25. The same measure for WFLV: not above 0.25; for IQPD: not above 0.25.

Regarding NHSC, the enrichment ratio was not above 0.25.
